Data published in US20230220035A1 (DONG-A ST CO., LTD., published 2023).
Part of at least one peptide drawing is inferred or uncertain, most often the ends.

Legend:
ICR mice = assay: Glucose tolerance improvement effect in mice; type: in vivo; settings: 30 nmol/kg S.C. 6 hours before oral glucose loading, fasted ICR mice, 2 hours
mice = settings: 1-week in vivo weight loss evaluation in mice, prior art; cited from earlier work
[1] = system: mice with high-fat-diet-induced obesity; assay: Body weight loss efficacy evaluation by 1-week repeated injection; type: in vivo, C57BL/6 mouse; settings: 30 nmol/kg S.C. once a day x 7, high-fat-diet-induced obese C57BL/6 mice

Compound: CCCCCCCCCCCCCCCCCC(=O)N[C@@H](CCC(=O)NCCOCCOCC(=O)NCCOCCOCC(=O)NCCCC[C@H](NC(=O)[C@H](CC(=O)O)NC(=O)[C@H](CO)NC(=O)[C@@H](NC(=O)[C@H](Cc1ccccc1)NC(=O)[C@@H](NC(=O)CNC(=O)[C@H](CCC(N)=O)NC(=O)C(C)(C)NC(=O)[C@@H](N)Cc1c[nH]cn1)[C@@H](C)O)[C@@H](C)O)C(=O)N[C@@H](CO)C(=O)N[C@@H](CCCCN)C(=O)N[C@@H](Cc1ccc(O)cc1)C(=O)N[C@@H](CC(C)C)C(=O)N[C@@H](CC(=O)O)C(=O)NC(C)(C)C(=O)N[C@@H](CCCNC(=N)N)C(=O)N[C@@H](CCCNC(=N)N)C(=O)N[C@@H](C)C(=O)N[C@@H](CCC(N)=O)C(=O)N[C@@H](CC(=O)O)C(=O)N[C@@H](Cc1ccccc1)C(=O)N[C@H](C(=O)N[C@@H](CCC(N)=O)C(=O)N[C@@H](Cc1c[nH]c2ccccc12)C(=O)N[C@@H](CC(C)C)C(=O)N[C@@H](CCSC)C(=O)N[C@@H](CC(N)=O)C(=O)N[C@H](C(=O)N[C@@H](CCCCN)C(=O)N[C@@H](CCC(=O)O)C(=O)N[C@@H](Cc1ccc(O)cc1)C(=O)N[C@@H](CCC(=O)O)C(=O)N[C@@H](CCCCNC(=O)CCCCCCCCCCCCCCCCC(=O)O)C(=O)N[C@@H](CCC(=O)O)C(=O)N[C@@H](Cc1ccc(O)cc1)C(=O)N[C@@H](CCC(=O)O)C(=O)O)[C@@H](C)O)C(C)C)C(=O)O [Compound 3]
- reduction of blood glucose AUC compared to the glucose control group (ICR mice): 26.7%
- weight loss effect versus liraglutide, the control (mice): better weight loss effect than liraglutide
- cumulative feed consumption reduced compared to the vehicle control group [1]: 40%
- weight change from the initial body weight [1]: −16.1%
